Assay results taken from the supplement of paper PMC6089552.
Out of some 3,200 compounds screened, about 300 (9.4%) showed activity. The list shows a part of the results, in another mix than the full data.

Tested on: A673/TR/shEF
Assay: cell viability (LOESS-normalised, relative to median of negative controls) (log2 ratio); higher = more viable cells (less compound effect), active = hit call of the paper (over 3 MAD below the median)
Conditions: treatment time: 72 h
Summary of the method: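 For three days, A673/TR/shEF Ewing sarcoma cells in 384-well plates (1,500 per well) were treated with library compounds at two or more concentrations or with DMSO controls, after doxycycline had been added or withheld 24 h beforehand to induce EWS-FLI1 shRNA knockdown. Viability was read by CellTiter-Glo luminescence on an Envision reader. The data were LOESS-corrected per plate, divided by the median of negative controls and log2-transformed.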

[1] = 0.25 µM, library screen: screen2, EWS-FLI1 expression: high (no doxycycline)
[2] = 0.25 µM, library screen: screen2, EWS-FLI1 expression: low (doxycycline-induced shRNA knockdown)
[3] = 2.5 µM, library screen: screen2, EWS-FLI1 expression: high (no doxycycline)
[4] = 2.5 µM, library screen: screen2, EWS-FLI1 expression: low (doxycycline-induced shRNA knockdown)
[5] = 0.25 µM, library screen: screen1, EWS-FLI1 expression: high (no doxycycline)
[6] = 0.25 µM, library screen: screen1, EWS-FLI1 expression: low (doxycycline-induced shRNA knockdown)
[7] = 2.5 µM, library screen: screen1, EWS-FLI1 expression: high (no doxycycline)
[8] = 2.5 µM, library screen: screen1, EWS-FLI1 expression: low (doxycycline-induced shRNA knockdown)
[9] = 0.103 µM, library screen: screen3, EWS-FLI1 expression: high (no doxycycline)
[10] = 0.103 µM, library screen: screen3, EWS-FLI1 expression: low (doxycycline-induced shRNA knockdown)
[11] = 0.308 µM, library screen: screen3, EWS-FLI1 expression: high (no doxycycline)
[12] = 0.308 µM, library screen: screen3, EWS-FLI1 expression: low (doxycycline-induced shRNA knockdown)
[13] = 0.926 µM, library screen: screen3, EWS-FLI1 expression: high (no doxycycline)
[14] = 0.926 µM, library screen: screen3, EWS-FLI1 expression: low (doxycycline-induced shRNA knockdown)
[15] = 2.8 µM, library screen: screen3, EWS-FLI1 expression: high (no doxycycline)
[16] = 2.8 µM, library screen: screen3, EWS-FLI1 expression: low (doxycycline-induced shRNA knockdown)
[17] = 8.3 µM, library screen: screen3, EWS-FLI1 expression: high (no doxycycline)
[18] = 8.3 µM, library screen: screen3, EWS-FLI1 expression: low (doxycycline-induced shRNA knockdown)
[19] = 25 µM, library screen: screen3, EWS-FLI1 expression: high (no doxycycline)
[20] = 25 µM, library screen: screen3, EWS-FLI1 expression: low (doxycycline-induced shRNA knockdown)
[21] = 0.025 µM, library screen: screen1, EWS-FLI1 expression: high (no doxycycline)

Measured: cell viability (log2)

O=C(CCNNC(=O)c1ccncc1)NCc1ccccc1
inactive: [1] 0.188 | [2] 0.0772 | [3] 0.124 | [4] 0.0622

CCCn1c(=O)c2[nH]c(C3CCCC3)nc2n(CCC)c1=O
inactive: [5] 0.0747 | [6] 0.0483 | [1] 0.168 | [2] 0.0953 | [7] 0.128 | [8] 0.132 | [3] 0.141 | [4] 0.106

CCC(=O)c1ccc2c(c1)N(CCCN(C)C)c1ccccc1S2
inactive: [1] 0.24 | [2] 0.09 | [3] 0.196 | [4] 0.146

Cc1nc2ccccn2c(=O)c1CCN1CCC(C(=O)c2ccc(F)cc2)CC1
inactive: [5] 0.119 | [6] 0.184 | [1] 0.229 | [2] 0.127 | [7] 0.124 | [8] 0.101 | [3] 0.243 | [4] 0.107

COC1CCC2(C)C(CCC3C2CCC2(C)C(C(C)CCCC(C)C)CCC32)C1 (stereo not given)
inactive: [5] -0.00918 | [6] 0.0236 | [7] 0.0903 | [8] 0.091

C#Cc1cccc(Nc2ncnc3cc(OCCOC)c(OCCO)cc23)c1
inactive: [9] -0.021 | [10] 0.0228 | [11] -0.00557 | [12] 0.0307 | [13] -0.00846 | [14] 0.063 | [15] 0.0648 | [16] 0.0201 | [17] -0.0295 | [18] 0.0604 | [19] -0.0784 | [20] -0.0862

NC(=O)c1cnccn1
inactive: [9] 0.0912 | [10] 0.0273 | [5] 0.0879 | [6] 0.0742 | [1] 0.0855 | [2] 0.071 | [11] 0.124 | [12] 0.0104 | [13] 0.114 | [14] 0.0339 | [7] 0.115 | [8] 0.137 | [3] 0.152 | [4] 0.0505 | [15] 0.201 | [16] 0.076 | [17] 0.0479 | [18] 0.0421 | [19] 0.139 | [20] 0.066

CC1(C)CC(=O)C2=C(C1)Nc1ccccc1N(C(=O)Cc1ccc(Cl)cc1)C2c1cccnc1 (stereo not given)
inactive: [5] 0.0404 | [6] 0.0353 | [7] 0.127 | [8] 0.0963

Cc1cc2ncc(-c3ccccc3)nc2cc1C
active: [7] -0.0894 | 25 µM, library screen: screen1, EWS-FLI1 expression: high (no doxycycline) -0.147
inactive: [21] 0.21 | 0.025 µM, library screen: screen1, EWS-FLI1 expression: low (doxycycline-induced shRNA knockdown) 0.0761 | [5] 0.265 | [6] 0.0996 | [8] 0.141 | 25 µM, library screen: screen1, EWS-FLI1 expression: low (doxycycline-induced shRNA knockdown) 0.0902

CC(=O)O[C@H]1C(=O)[C@@]2(C)[C@H]([C@H](OC(=O)c3ccccc3)[C@]3(O)C[C@H](OC(=O)[C@H](O)[C@@H](NC(=O)c4ccccc4)c4ccccc4)C(C)=C1C3(C)C)[C@]1(OC(C)=O)CO[C@@H]1C[C@@H]2O
active: [9] -2.57 | [10] -0.853 | [5] -3.63 | [6] -1.46 | [1] -2.49 | [2] -0.868 | [11] -2.24 | [12] -0.787 | [13] -2.68 | [14] -0.947 | [7] -4.22 | [8] -1.51 | [3] -2.93 | [4] -1 | [15] -2.59 | [16] -1.11 | [17] -2.75 | [18] -1.03 | [19] -2.68 | [20] -1.1

NC1CONC1=O (stereo not given)
inactive: [1] 0.18 | [2] 0.11 | [3] 0.099 | [4] 0.0745

COc1cccc2c1C(=O)c1c(O)c3c(c(O)c1C2=O)C[C@@](O)(C(=O)CO)C[C@@H]3O[C@H]1C[C@H](N)[C@@H](O)[C@H](C)O1
active: [9] -0.347 | [10] -0.195 | [11] -1.12 | [12] -0.399 | [13] -1.58 | [14] -0.41 | [15] -3.26 | [16] -1.19 | [17] -4.26 | [18] -4.27 | [19] -4.26 | [20] -4.25

C/C=C/c1ccc(OC)cc1
inactive: [5] 0.0922 | [6] 0.0583 | [7] 0.101 | [8] 0.0905

C=C(C)[C@@H]1CC[C@]2(CO)CC[C@]3(C)[C@H](CC[C@@H]4[C@@]5(C)CC[C@H](O)C(C)(C)[C@@H]5CC[C@]43C)[C@@H]12
inactive: [5] -0.00995 | [6] -0.0271 | [7] 0.0576 | [8] -0.00146

COc1cc2c(cc1OC)[C@@H]1C(=O)c3c(O)cc4c(c3O[C@@H]1CO2)C=CC(C)(C)O4
inactive: [8] -0.138
active: [5] -0.205 | [6] -0.261 | [7] -0.213

N=C(N)c1ccc(N)cc1
inactive: [1] 0.132 | [2] 0.0859 | [3] 0.0987 | [4] 0.121

CCCN(CCC)CCc1cccc2c1CC(=O)N2
active: [1] -0.0806 | [2] -0.203 | [3] -3.18 | [4] -2.79

CCN1CCN(C(=O)NC(C(=O)NC2C(=O)N3C(C(=O)O)=C(CSc4nnnn4C)CSC23)c2ccc(O)cc2)C(=O)C1=O (stereo not given)
inactive: [5] 0.138 | [6] 0.138 | [7] 0.0778 | [8] 0.154

COc1ccc2cc([C@H](C)C(=O)O)ccc2c1
inactive: [1] 0.155 | [2] 0.0708 | [3] 0.14 | [4] 0.0958

C[N+](C)(C)CC(O)CC(=O)O (stereo not given)
inactive: [5] 0.0407 | [6] 0.0603 | [7] 0.141 | [8] 0.165

CC(C)C[C@H](NC(=O)[C@H](CCC(=O)O)NC(=O)CNC(=O)c1ccc(/C=C/C(=O)O)cc1)C(N)=O
active: [21] -0.138

C[C@]12CCC(=O)C=C1[C@@H]1C[C@@H]1[C@H]1[C@@H]3[C@@H]4C[C@@H]4[C@@]4(CCC(=O)O4)[C@@]3(C)CC[C@@H]12
inactive: [9] 0.0134 | [10] 0.0343 | [11] -0.0173 | [12] -0.016 | [13] 0.0958 | [14] 0.0477 | [15] -0.09 | [16] -0.0296 | [17] -0.0227 | [18] 0.0426 | [19] -0.00242 | [20] -0.0168

CC(=O)OC1CC[C@@]2(C)C(CC[C@]3(C)C2CCC2C4CC(C)(C)CCC4(C(=O)O)CC[C@]23C)C1(C)C (stereo not given in full)
inactive: [5] 0.0992 | [6] 0.055 | [7] 0.145 | [8] 0.119

Nc1ncnc2c1ncn2[C@@H]1O[C@H](COP(=O)(O)OP(=O)(O)OP(=O)(O)OP(=O)(O)OC[C@@H]2O[C@H](n3cnc4c(N)ncnc43)C(O)[C@@H]2O)[C@H](O)C1O (stereo not given in full)
inactive: [1] 0.242 | [2] 0.0165 | [3] 0.141 | [4] 0.101

COc1ccccc1N1CCN(CCN(C(=O)c2ccc(I)cc2)c2ccccn2)CC1
inactive: [1] 0.184 | [2] 0.0785 | [3] 0.0431 | [4] 0.0688

CC1=C(/C=C/C(C)=C/C=C/C(C)=C/CO)C(C)(C)CCC1
inactive: [5] 0.148 | [6] 0.0325 | [7] 0.156 | [8] -0.0113

C/C=C(/C(=C/C)c1ccc(O)cc1)c1ccc(O)cc1
inactive: [5] 0.152 | [6] 0.172 | [7] 0.133 | [8] 0.163

O=C(O)c1ccccc1OP(=O)(O)O
inactive: [5] -0.0123 | [6] 0.00401 | [7] 0.0889 | [8] 0.118

COC(=O)c1c(C)cc(OC(=O)c2c(C)cc(O)c(C=O)c2O)c(C)c1O
inactive: [5] 0.0446 | [6] 0.137 | [7] 0.0984 | [8] 0.0852

OC1(c2ccc(Cl)cc2)CCN(Cc2c[nH]c3ccccc23)CC1
inactive: [1] 0.116 | [2] 0.165 | [3] 0.0719 | [4] 0.0584

CCC(C)C(=O)c1c(O)c(C)c2oc3c(C)c(O)c(C(=O)C(C)CC)c(O)c3c2c1O (stereo not given)
active: [7] -0.592

CCCCCCCC/C=C/CCCCCCCC(=O)OC(CO)COC(=O)CCCCCCCCCCCCCCC (stereo not given)
inactive: [1] 0.242 | [2] 0.101 | [3] 0.231 | [4] 0.152

CC1(C)S[C@@H]2[C@H](NC(=O)[C@H](N)c3ccccc3)C(=O)N2[C@H]1C(=O)O
inactive: [5] 0.0882 | [6] 0.14 | [7] 0.142 | [8] 0.206

CCCc1occc(=O)c1C=CO
inactive: [5] -0.0143 | [6] 0.0143 | [7] 0.203 | [8] 0.0516

O=c1n(CCCN2CCN(c3cccc(Cl)c3)CC2)nc2ccccn12
inactive: [9] 0.0271 | [10] -0.0162 | [5] 0.0857 | [6] 0.143 | [1] 0.142 | [2] 0.118 | [11] 0.0692 | [12] 0.0478 | [13] -0.0642 | [14] 0.0142 | [7] 0.104 | [8] 0.163 | [3] 0.117 | [4] 0.0439 | [15] 0.0622 | [16] 0.0232 | [17] 0.00929 | [18] 0.0658 | [19] 0.0202 | [20] 0.0456

CC(C)(O)[C@@H]1CC[C@](C)([C@H]2[C@@H](O)C[C@@]3(C)[C@@H]4C[C@H](O[C@@H]5O[C@H](CO)[C@@H](O)[C@H](O)[C@H]5O)[C@H]5C(C)(C)[C@@H](O[C@@H]6OC[C@@H](O)[C@H](O)[C@H]6O)CC[C@@]56C[C@@]46CC[C@]23C)O1
inactive: [9] 0.0688 | [10] 0.0886 | [11] 0.0588 | [12] 0.038 | [13] 0.056 | [14] 0.105 | [15] 0.044 | [16] -0.00938 | [17] 0.0806 | [18] 0.0911 | [19] 0.0188 | [20] 0.0301
